Experimental findings from paper PMC12136788 are described below.

The other results are listed elsewhere or left out.

The labels stand for the following.
T1: UNK ZnF1-3 (human, UniProt Q9C0B0 31-174)
T1 sequence: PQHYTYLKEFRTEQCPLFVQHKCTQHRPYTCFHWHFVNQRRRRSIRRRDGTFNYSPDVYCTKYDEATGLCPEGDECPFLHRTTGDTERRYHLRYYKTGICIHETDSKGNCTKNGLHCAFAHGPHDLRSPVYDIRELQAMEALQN

B1: chr17:57737884:57737885:+_ENSG00000141367_ENST00000269122|hu_hu|FALSE|FALSE (ssRNA)
RNA: GGGAGUUCUACAGUCCGACGAUCAUUUCCCUGGGCAAAAAGAGCAUUAAAUUUCCGGGCAAAGAGUUCUUCAGCACCGGCUAAGUUAUUACGUACAGCCAUUCUCAGAGCCAAAUCAGGAUUUUGUAGAACAUUGGUGAUGUACAACAGAGGAUUGAGCAUCA
B2: chr8:104439394:104439395:+_ENSG00000164934_ENST00000297579|hu_hu|motif|central (ssRNA)
RNA: GGGAGUUCUACAGUCCGACGAUCACUGUCAAAUCCCCAGGUCAUUGAACAUAUAGGAUUAGUUCUUUGUUCAUCCCAAAUGUCGGCUUGCUGUCCACAUGUGGCAAAAACAGCUUCUUUCCAGUGAUGAUCAAUCCCAGUAUACAACAGAGGAUUGAGCAUCA
B3: 63604056_63610781_2089_CDS_ENSMUSG00000025964_ENSMUST00000114107|mouse|control|control (ssRNA)
RNA: GGGAGUUCUACAGUCCGACGAUCUGUCCCCCAGAUGUACUGGCAUUGAUUGUCCCUUGUCUUGCACUCGCCAUUGUAGCAGCGACCCUGAUUUUGAUUGCAGCUAUAGCCAUCUUGUUUAUGGAGGUUCGGUGGGCACUGGCCCAACAGAGGAUUGAGCAUCA
B4: chr10:126434673:126434674:+_ENSMUSG00000078429_ENSMUST00000105256|mus_mus|motif|central (ssRNA)
RNA: GGGAGUUCUACAGUCCGACGAUCUGACUGACAUUGAAAGCAACAGGGCUGAGAGCUCAGAGCUGCCCAGAGCACAGAGCGGUGAGGACCUCACUCAGUCCUAUAACGAGAAGCAGGAGGCAUUUGGCAAAUCAAGUAAGAGCACAACAGAGGAUUGAGCAUCA
B5: chrX:71549762:71549763:+_ENSMUSG00000019087_ENSMUST00000019231|mus_mus|mus_mus_mus_hu_False|1_78 (ssRNA)
RNA: GGGAGUUCUACAGUCCGACGAUCAAACCCGUGUACUUCUUAUUGUUAGCACAACAUUCCCCCCCAACGAUAACGACAGCCAAGCAGGACAGACAGUUAAGUAGUACUUCCACACUCCCAAACUCAGGGAGCCCUAUAGUUCAUCAACAGAGGAUUGAGCAUCA
B6: chr2:42509997:42509998:+_ENSG00000143924_ENST00000318522|hu_mus|FALSE|FALSE (ssRNA)
RNA: GGGAGUUCUACAGUCCGACGAUCUCGCUGAGUCCUCUCCUCAUAAUUAAACAGGACUACCACUGAGGCGAUAAAAUAAACUAUCUCCCCUGUGGGAAGCAGGUAUACAUUCGCUCUACAGUCCUUUCCUCGAUAACCGUAUACCAACAGAGGAUUGAGCAUCA
B7: chr18:56819859:56819860:+_ENSG00000166562_ENST00000588875|hu_mus|hu_hu_hu_mus_True|8_78 (ssRNA)
RNA: GGGAGUUCUACAGUCCGACGAUCAACCUUGAUUACUCUGUGAACUAUCGGAAUGUCUCGUCCUUCAACCUUAAAAACAACUAUUUCACCAGCUCUGAUGGGGUCCUCCCGGAAAUUCGUGAGGAACAGGAGGUCUCCUCUGUGCAACAGAGGAUUGAGCAUCA
B8: chr2:9570881:9570882:+_ENSG00000119203_ENST00000238112|hu_mus|hu_hu_hu_mus_False|8_18 (ssRNA)
RNA: GGGAGUUCUACAGUCCGACGAUCACUUGUCUUCUGAAGGAACCAGGGCAGGGCUCCACAGUGAUCCAAAUGGAAAUGACUGAUCAACAGAAGGUCGAUCUCAGCUGGGUCGAUAAGAUCAAUAUAAGGAAGAGCAUCCAUUCCCAACAGAGGAUUGAGCAUCA
B9: 49672768_49764784_223_CDS_ENSG00000102935_ENST00000562871|human|control|control (ssRNA)
RNA: GGGAGUUCUACAGUCCGACGAUCUGGGUCGUCAUCACCAUCUCCAGGACAGCGGUGGGCCCGGUGGUCCGUCAGGUCUGCCAGAGACUCGAAGUCCUGCUGACAGUGAUCGCAGGUGUAAAUUGAUUCAUCCUCCAUGUCUUCCAACAGAGGAUUGAGCAUCA
B10: chr3:196089228:196089229:-_ENSG00000163960_ENST00000296328|hu_hu|FALSE|FALSE (ssRNA)
RNA: GGGAGUUCUACAGUCCGACGAUCUUCCCUUUUUCCAUCUGGAUACCGCAACAUCAGCUGUGCUUUUGGUCCAUUUACAUCUAUCCCCUCCACUACUCCAUCUGCUUUUUCAGGUGGCAUCUCCAGUAUCUCUGAAUCCACAGCCAACAGAGGAUUGAGCAUCA
B11: 154391535_154396286_1232_3pUTR_ENSMUSG00000026482_ENSMUST00000027760|mouse|control|control (ssRNA)
RNA: GGGAGUUCUACAGUCCGACGAUCGAAAGUUCUUCAAACAUCAGCAUUCUGUCCUUCGGGACAGCAGCCCAAGCCUUUUUCAACCGAUAGAUGGAAUUAGACUGCAGUGCGGAAACGAUGGCCCUCAAGGAGGAAAAAUUCUUCCAACAGAGGAUUGAGCAUCA
B12: chr11:9452432:9452433:+_ENSG00000205339_ENST00000379719|hu_hu|motif|central (ssRNA)
RNA: GGGAGUUCUACAGUCCGACGAUCAAAUGUCAUUGCCAAAUGUUGUGUCAUUUCUACUGCAAUAGGAGUAACUUCUUCACGGUAUUCACAGAUCAUUUUCUGAAUUACAUUGGUAAGGUCAUCAUUUUCUGUUUCUCUUAUAAUCAACAGAGGAUUGAGCAUCA
B13: 126725971_126726091_2158_CDS_ENSMUSG00000043872_ENSMUST00000106102|mouse|control|control (ssRNA)
RNA: GGGAGUUCUACAGUCCGACGAUCAGACACAUGAACUGUGUUGAACAAAGAGCAGAGAGUGUGUAGUGCCUCGCGGAGCUCCUUCACCUCCUUACAGAAGCUAAUCACCGCUAACUCCAAAAAAUGGGCGUGACAAUGCACAUACAACAGAGGAUUGAGCAUCA
B14: chr14:76904430:76904431:+_ENSMUSG00000022010_ENSMUST00000022587|mus_mus|mus_mus_mus_hu_True|8_88 (ssRNA)
RNA: GGGAGUUCUACAGUCCGACGAUCUGCAGCCAAAAACACCCUCGUGGCGGGAGGGAGGGAACACCAGCAGCCUUGUAUAAGCUAGAUAAAAUCUUCUGGCUUUCCGCAGCCCAGGGAGAAACAGAAAUGGUGCUGGCUAAUUUACAACAGAGGAUUGAGCAUCA
B15: chr9:131457026:131457027:+_ENSG00000119335_ENST00000372688|hu_hu|FALSE|FALSE (ssRNA)
RNA: GGGAGUUCUACAGUCCGACGAUCGUAGAGAAAAGAGACCUCAAGAACAGGGCGACUGAGCACAAGAGGGAAAAAAAAAAAAAAAAAAAAAAAAGACUGCAACUUGCUCCCAGGGACUGGAGAAAAUUUAAAAAAAGGAAGGUUCAACAGAGGAUUGAGCAUCA
B16: chrX:140365796:140365797:-_ENSMUSG00000031285_ENSMUST00000033642|mus_mus|mus_mus_mus_hu_False|8_38 (ssRNA)
RNA: GGGAGUUCUACAGUCCGACGAUCCUUCUCAUUACUCAGUGCCUGCAAGGUUCUGGUUCGGUAGAAGCUACAGUGGGCGCUGUGAGUGGGGCUAGGCAGUCCAUUCAUCCGGGAGCCUCGCAUGUUCCUAGAUGCUUUAUCUCUCAACAGAGGAUUGAGCAUCA
B17: 49432654_49433006_8424_CDS_ENSG00000167548_ENST00000301067|human|control|control (ssRNA)
RNA: GGGAGUUCUACAGUCCGACGAUCGGAGGUUGCUGCUGUUGCCUGUUGUUGCUGCCACAGUUGUUGCUGUUGCUGCUGUAAGGGCAGGGACCCAGGAUAGGGUGCUCGCUGAUAGAAAGCUUGGGAGCCUCCUACCAGUUGCCGCAACAGAGGAUUGAGCAUCA
B18: chr7:143079985:143079986:+_ENSG00000159840_ENST00000392910|hu_mus|FALSE|FALSE (ssRNA)
RNA: GGGAGUUCUACAGUCCGACGAUCCUGAGGCUUGGCCUGCGGCUGAGGUGGUGGCUGGGAGCUAGAAGGGGUCUUCCAAGGAGGCAAGGGUGCUGUGCCCCCAGGGGCAGGUUUGGUACUAGGCUUGGGAACAAAUGGAGUGGCCAACAGAGGAUUGAGCAUCA
B19: chr12:98991669:98991670:+_ENSG00000075415_ENST00000552981|hu_hu|motif|central (ssRNA)
RNA: GGGAGUUCUACAGUCCGACGAUCGAAUCCGUUAAAUAUGCCCUUGUACUUUUGGGGGUCCACCUGCAUACGGCAUUUCACGGAAUCCAGGGGAACCACAGCAGUGUGUGUCAGACCACAACUUAAGACCCCACCAAAGCCACACAACAGAGGAUUGAGCAUCA
B20: chr12:493273:493274:-_ENSG00000073614_ENST00000399788|hu_mus|hu_hu_hu_mus_False|38_38 (ssRNA)
RNA: GGGAGUUCUACAGUCCGACGAUCUUUUCUCUCCACCACAGGGAUCUUCAAUGUAGAUCCUUGAAGUUCCCAAAAUUUUGCCAGUUGAUCCAAGAAGUCCAAUCUCACUCUAGUCAUUGCCUCAAGUUCAUUCAGGCGCUGGACCAACAGAGGAUUGAGCAUCA
B21: chr14:53324496:53324497:-_ENSG00000073712_ENST00000341590|hu_mus|FALSE|FALSE (ssRNA)
RNA: GGGAGUUCUACAGUCCGACGAUCUAUUGUAACACAAAGGCUGCAUAUCUUAGGCAGAUAGUGAGUAUGCUGGUGAAUACUAAGAGUACUGUAAUACAGUUUGGUGUAAAACUAAACACAAAACAAUGUACAGCAUGCUUACUCCAACAGAGGAUUGAGCAUCA
B22: chr7:7679991:7679992:-_ENSG00000106399_ENST00000396682|hu_hu|hu_hu_hu_mus_False|18_88 (ssRNA)
RNA: GGGAGUUCUACAGUCCGACGAUCUGGGAUGAAUCUUUUCCAGCUUCCCUACGAAGCACACGGGCCGGUCGAUAUACUGUGGUAACAUGCUGGCGUUGACGCGCGCUUUGGGGAGCUCCAUCAUGUCCUCCAUGAUUCUGCCGCCAACAGAGGAUUGAGCAUCA

This test has as its target T1, UNK ZnF1-3. Put plainly: nsRBNS (natural sequence RNA bind-n-seq); RBNS binding buffer (assumed for nsRBNS): 25 mM Tris pH 7.5, 150 mM KCl, 3 mM MgCl2, 0.01% Triton X-100, 500 ug/ml BSA, 20 U/ml SUPERase-In, 4 C; UNK is unkempt and MSI1 is Musashi-1; names of the RNAs are library labels; protein concentration not given here; high values mean tight binding.
B1 had a binding signal of 1.93 enrichment R.

In turn, B2 had a binding signal of 0.667 enrichment R.

Take B3: the binding signal is 0.612 enrichment R.

In turn, B4 gave a binding signal of 2 enrichment R.

Take B5: the binding signal is 1.53 enrichment R.

Turning to B6, the binding signal was found to be 1.26 enrichment R.

B7 gave a binding signal of 0.864 enrichment R.

The molecule B8 showed a binding signal of 1.4 enrichment R.

Turning to B9, the binding signal worked out at 0.719 enrichment R.

With B10, the binding signal was 0.957 enrichment R.

For the molecule B11, the binding signal is 1.48 enrichment R.

With B12, the binding signal is 0.762 enrichment R.

Molecule B13 yielded a binding signal of 1.03 enrichment R.

Consider B14, for which the binding signal was 2.04 enrichment R.

On to B15, for which the binding signal stood at 2.58 enrichment R.

Take B16: the binding signal was 0.437 enrichment R.

B17 yielded a binding signal of 0.747 enrichment R.

On to B18, for which the binding signal stood at 1.94 enrichment R.

As for B19, the binding signal is 1.01 enrichment R.

As to B20, the binding signal came out at 0.97 enrichment R.

B21 gave a binding signal of 0.553 enrichment R.

As for B22, the binding signal was determined as 0.85 enrichment R.
